# In the supplement of paper PMC5919970:
# Where a name gives a salt, the structure may show the parent alone. The full ranking holds about 2,000 compounds; the median of “fractional viability relative to vehicle” is about 0.91, and the lowest 2% start at about 0.045. Some of the results follow.
# System: TYKNU
# Assay: fractional viability relative to vehicle; TYKNU is a high-grade serous ovarian cancer line; higher = less growth inhibition
# Conditions: 72 h
# Method in brief: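 TYKNU control cells or lentiCRISPRv2 knockout derivatives were plated at 500 cells per well in duplicate into drug-stamped 384-well plates holding a ~2100-compound library at 2 or 10 μM. Culture was in RPMI 1640 with 10% FBS at 37 °C in 5% CO2, with 72 h of drug treatment. Viability was measured by Cell Titer Glo luminescence, and the averaged duplicate treatment wells were normalised to duplicate control wells at the same plate position.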
# [1] = 2uM, genotype: DNM1L knockout (sgDNM1L #1)
# [2] = 2uM, genotype: sgCTRLA1 (non-targeting control)
# [3] = 10uM, genotype: DNM1L knockout (sgDNM1L #1)
# [4] = 10uM, genotype: sgCTRLA1 (non-targeting control)
Compound,fractional viability [1],fractional viability [2],fractional viability [3],fractional viability [4]
Cc1cc(C)cc(NC(=O)Cc2ccc(OC(C)(C)C(=O)O)cc2)c1 [Efaproxiral Sodium],0.85,1.1,0.696,1.09
Cc1ccc(O)c([C@H](CCN(C(C)C)C(C)C)c2ccccc2)c1 [Tolterodine tartrate],0.88,1.02,0.688,1.06
CCCCOc1ccc(CC(=O)NO)cc1 [Bufexamac],1.12,1.11,0.86,0.9
CCCCCCCCCCCCCCCCO [1-Hexadecanol],0.833,1.09,0.879,1.1
CCN1/C(=C/C(C)=O)Sc2ccc(OC)cc21,0.758,0.997,0.679,0.915
CCCCC(C=O)NC(=O)C(CC(C)C)NC(=O)C(CC(C)C)NC(C)=O (configuration not stated),0.729,0.896,0.784,0.747
Cc1nn(C)c(COc2ccc(N3CCN(S(=O)(=O)N(C)C)CC3)cc2)c1-c1cccc2c(CCCOc3cccc4ccccc34)c(C(=O)O)n(CCN3CCOCC3)c12,0.762,0.94,0.644,0.518
CCCC(=O)Nc1ccc(OCC(O)CNC(C)C)c(C(C)=O)c1 (configuration not stated) [Acebutolol HCl],0.982,1.09,0.768,0.958
C[C@@H]1O[C@@H](OC[C@H]2O[C@@H](Oc3c(-c4ccc(O)c(O)c4)oc4cc(O)cc(O)c4c3=O)[C@H](O)[C@@H](O)[C@@H]2O)[C@H](O)[C@H](O)[C@H]1O [Rutin],0.96,1.19,0.774,1.1
CN1[C@@H]2CC[C@H]1C[C@@H](OC(c1ccccc1)c1ccccc1)C2 [Benztropine mesylate],0.919,1.03,0.712,0.947
N=C(N)c1ccc(N=NNc2ccc(C(=N)N)cc2)cc1 [Diminazene Aceturate],1.01,1.09,0.817,1.07
C[C@H](CCC(=O)O)[C@H]1CC[C@H]2[C@@H]3C[C@H](O)[C@@H]4C[C@H](O)CC[C@]4(C)[C@H]3CC[C@]12C [Hyodeoxycholic acid (HDCA)],0.969,1.06,0.951,1.05
NC(=O)Nc1sc(-c2ccc(F)cc2)cc1C(N)=O,0.75,0.883,0.245,0.294
CC(C)(C)OC(=O)N[C@H]1CCCCC/C=C\[C@@H]2C[C@@]2(C(=O)NS(=O)(=O)C2CC2)NC(=O)[C@@H]2C[C@@H](OC(=O)N3Cc4cccc(F)c4C3)CN2C1=O [Danoprevir (ITMN-191)],1.02,1.05,0.951,1.13
N[C@@H](CC(=O)N1CCn2c(nnc2C(F)(F)F)C1)Cc1cc(F)c(F)cc1F [Sitagliptin phosphate monohydrate],1.09,1.2,0.959,1.08
C[C@@H]1O[C@@H](O[C@H]2[C@H](Oc3cc(O)c4c(c3)O[C@H](c3ccc(O)cc3)CC4=O)O[C@H](CO)[C@@H](O)[C@@H]2O)[C@H](O)[C@H](O)[C@H]1O [Naringin],0.915,1.12,0.827,1
C/C(O)=C(\C#N)C(=O)Nc1ccc(C(F)(F)F)cc1 [Teriflunomide],0.811,0.883,0.395,0.564
COc1nc(C)cnc1NS(=O)(=O)c1cccnc1-c1ccc(-c2nnco2)cc1 [Zibotentan (ZD4054)],1.16,1.21,0.906,1
Nc1nccc2c1ncn2C1C=C(CO)C(O)C1O (configuration not stated) [3-Deazaneplanocin A (DZNeP)],0.453,0.62,0.42,0.575
Cc1nc(N(C)C(=O)Cc2ccc(-c3ccccn3)cc2)sc1S(N)(=O)=O [Pritelivir (BAY 57-1293)],0.897,0.947,0.855,0.818
Cn1cc(/C=C/C(=O)c2cccc(F)c2)cc1/C=C/C(=O)NO,1.05,1.14,0.58,0.87
C[C@@H](Oc1cc(-c2cnn(C3CCNCC3)c2)cnc1N)c1c(Cl)ccc(F)c1Cl,0.669,0.73,0.128,0.126
Cc1cc(Nc2ncc(Cl)c(Nc3ccccc3S(=O)(=O)C(C)C)n2)c(OC(C)C)cc1C1CCNCC1,0.612,0.403,0.026,0.0128
O=C(O)Cc1cc(I)c(Oc2ccc(O)c(I)c2)c(I)c1 [Tiratricol],0.914,1.24,0.699,0.986
CCC(CC)(NC(=O)C(C)C)C(=O)N[C@@H](CCCN=C(N)N)C(=O)NC1(C(=O)NC(c2ccc(F)cc2)c2ccc(F)cc2)CCCC1,0.777,1.17,0.671,1.06
Cc1ccc(C(=O)C(C)CN2CCCCC2)cc1 (configuration not stated) [Tolperisone HCl],0.857,1.19,0.793,0.915
CNCC[C@@H](Oc1ccccc1C)c1ccccc1 [Atomoxetine HCl],1.04,1.15,0.786,1.16
COc1cc2ncnc(Nc3ccc(F)c(Cl)c3)c2cc1NC(=O)/C=C/CN1CCCCC1,0.843,0.792,0.251,0.0521
